Hit rate of the full screen: of about 390,000 compounds, about 17,000 (4.4%) were called active. Inconclusive results, whose numbers are uncertain, are shown with a selection of clear calls. Calls come from the whole dose curve; as a rule, active = well fitted inhibition curve with a large enough effect; inconclusive = small, poorly fitted or top-dose-only effect; inactive = no such curve, though single readings can be large or run the other way. Potencies beside an inconclusive call are fits to weak or partial responses and may not hold up.
molecular target: Lysine-specific demethylase 4A (Homo sapiens) (UniProt O75164); assay: qHTS Assay for Inhibitors of JMJD2A-Tudor Domain; conditions: AlphaScreen JMJD2A-Tudor / H3K4me3 peptide binding; activity change, negative = inhibition: at 114 µM (top of the series); note: nearly all actives have a fitted effect of over 50% in size
% is set by controls: 0 for no effect and ±100 for the full control effect; potency is the fitted concentration of half-maximal effect; tags give direction and shape of the fitted curve.

Chain of UniProt O75164 (O75164 whole entry, looked up, the tested form may be a part): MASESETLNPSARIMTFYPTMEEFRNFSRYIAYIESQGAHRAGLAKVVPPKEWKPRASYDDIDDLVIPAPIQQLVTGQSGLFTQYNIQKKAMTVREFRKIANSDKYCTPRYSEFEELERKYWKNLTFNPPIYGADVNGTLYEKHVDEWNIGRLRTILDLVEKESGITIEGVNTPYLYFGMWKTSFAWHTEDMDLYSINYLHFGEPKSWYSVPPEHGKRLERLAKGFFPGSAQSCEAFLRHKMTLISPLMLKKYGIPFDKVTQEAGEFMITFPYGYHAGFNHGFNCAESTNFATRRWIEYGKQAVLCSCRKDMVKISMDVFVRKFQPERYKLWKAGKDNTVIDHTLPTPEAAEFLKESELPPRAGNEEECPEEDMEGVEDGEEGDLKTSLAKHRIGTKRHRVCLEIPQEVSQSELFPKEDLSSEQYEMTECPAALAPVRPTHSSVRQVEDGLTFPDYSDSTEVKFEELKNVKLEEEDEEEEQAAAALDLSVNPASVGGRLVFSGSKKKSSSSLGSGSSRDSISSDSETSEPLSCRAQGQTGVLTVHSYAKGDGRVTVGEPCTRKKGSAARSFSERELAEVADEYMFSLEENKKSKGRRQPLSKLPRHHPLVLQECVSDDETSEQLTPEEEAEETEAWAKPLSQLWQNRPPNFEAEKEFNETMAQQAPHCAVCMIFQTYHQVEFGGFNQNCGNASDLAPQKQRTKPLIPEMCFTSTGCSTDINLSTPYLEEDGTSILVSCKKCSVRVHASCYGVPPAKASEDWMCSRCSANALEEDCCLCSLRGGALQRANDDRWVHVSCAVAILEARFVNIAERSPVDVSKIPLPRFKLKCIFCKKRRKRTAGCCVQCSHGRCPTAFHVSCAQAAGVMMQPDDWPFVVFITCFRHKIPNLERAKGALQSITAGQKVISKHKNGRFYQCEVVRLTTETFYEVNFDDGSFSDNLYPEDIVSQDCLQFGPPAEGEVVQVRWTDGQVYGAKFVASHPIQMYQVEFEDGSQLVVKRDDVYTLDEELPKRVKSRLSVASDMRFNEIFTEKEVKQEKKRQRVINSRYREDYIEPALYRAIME

Potency, inactive:
CCOC(=O)Cc1ccc(NC(=O)NCc2cccn2Cc2ccccc2)cc1, CCN(CC)CCNc1nc(-c2ccco2)c2c(c1C#N)CC(C)(C)OC2, Cc1ccc(NC(=O)CSc2nc(-c3cccs3)nc3cc(=O)[nH]n23)cc1, CCOc1ccccc1C(=O)N[C@H](C(=O)OCC(=O)Nc1nnc(-c2ccccc2)o1)C(C)C, CSc1nc(-c2ccccc2)c(C#N)c(=O)n1C, CCc1ccc(-n2c(Cc3ccccc3)nnc2SCc2nc(-c3cccs3)no2)cc1, Cc1c(C2=CCN(S(=O)(=O)c3ccc(Br)cc3)CC2)c2ccccc2n1C, Cn1cc([N+](=O)[O-])c(C(=O)Nc2sc3c(c2C#N)CCC3)n1, COc1cc(C(=O)NNC(=O)c2ccco2)cc(OC)c1OC, CCOc1ccccc1CNC(=O)C1CCN(S(=O)(=O)c2ccc3c(ccn3C)c2)CC1, CC1(C)C(=O)Nc2ccccc2N1C(=O)CSc1nnc2c(Cl)cc(Cl)cn12, CN(C)c1ccc(NC(=O)CSc2n[nH]c(-c3ccncc3)n2)cc1, COc1ccccc1NC(=O)c1ccc(N)cc1, Cc1csc2nc(CNC(=O)C3CC=CCC3C(=O)O)cn12 (stereo not drawn), O=C(NNc1nc2c(F)cccc2s1)C1COc2ccccc2O1 (stereo not drawn), CCn1c(C)c(C(C)=O)c(N2CCC(C(N)=O)CC2)nc1=S, CCOC(=O)c1nn(-c2ccccc2C)c(=O)cc1OCC(=O)Nc1cccc(OC)c1, Cc1ccc(C(=O)Nc2sc3c(c2C(=O)O)CCC(C)C3)o1 (stereo not drawn), OCCN(CCO)c1ccc2ccccc2c1, COc1ccc(NC(=O)CSc2nc3ccccc3n2Cc2cccc(OC)c2)cc1, CCOc1ccc(NC(=O)C2CCN(c3nnc(-n4c(C)ccc4C)s3)CC2)cc1, COC(=O)c1ccc(N2CCOCC2)c(NC(=O)Nc2cccc(OC)c2)c1, CC(C)(C)c1ccc(C(=O)O)c(C(=O)c2ccc(C(=O)O)cc2)c1, Cc1cc(S(=O)(=O)Nc2ccc(-c3ccc(N4CCCCCC4)nn3)cc2)c(C)cc1Cl, CCn1ccnc1CN(C)Cc1nc(-c2cccc(Cl)c2)no1, NC(=O)N(N)c1nc(N2CCCC2)nc(N2CCCC2)n1, COc1ccc2c(c1)CCCC2=O, CCC(C)[C@H](NC(=O)C1CC(=O)N(c2ccc(OC)cc2)C1)C(=O)NC1CCCC1 (stereo partly drawn), CCN1C(=O)[C@H]2[C@@H](c3ccc(Cl)cc3)N3C(=O)CN(CC4CC4)C(=O)[C@@]3(Cc3ccccc3)[C@H]2C1=O

Potency, inconclusive:
O=C(N/N=C\C=C\c1ccc([N+](=O)[O-])o1)c1cccs1 35.5 µM [inhibitor, full curve], COc1cccc(-n2cc3c(c2-c2ccccc2)c(=O)n(C)c(=O)n3C)c1 79.4 µM [inhibitor, partial curve], Cc1ccc(-n2ncc3c(NCCCn4ccnc4)ncnc32)cc1Cl 39.8 µM [inhibitor, full curve], Cc1ccc(N2CCN(C(=O)c3cc(-c4ccc(F)cc4)[nH]c3C)CC2C)cc1 (stereo not drawn) 39.8 µM [inhibitor, partial curve], Cc1nn(CC(=O)Nc2ccc3c(c2)oc2ccccc23)c(=O)c2ccccc12 56.2 µM [inhibitor, partial curve, poor fit], COC(=O)C1=C(C)N(c2cccc(C)c2)C(=O)/C1=C\c1cccs1 10 µM [inhibitor, full curve], CN(C)S(=O)(=O)c1cccc(N=c2scc(-c3ccc4c(c3)NC(=O)CO4)n2CC2CCCO2)c1 (stereo not drawn) 56.2 µM [inhibitor, partial curve], COc1ccc(NS(=O)(=O)c2ccc3[nH]c4c(c3c2)CCCC4)cc1Cl 50.1 µM [inhibitor, partial curve], COc1ccccc1OCC(=O)Nc1ccc(N2CCCCC2)cc1 44.7 µM [inhibitor, partial curve], Cc1ccc(CNC(=O)C23CN(Cc4ccccc4)CC2C(c2ccc([N+](=O)[O-])cc2)=NO3)cc1 (stereo not drawn) 11.2 µM [inhibitor, full curve], CCOC(=O)c1c(CN2CCOCC2)n(-c2ccccc2)c2cc(Br)c(O)c(CN(C)C)c12 79.4 µM [inhibitor, single point], COCCn1c(C)cc(C(=O)COC(=O)c2ccc3c(c2)NC(=O)CS3)c1C 63.1 µM [inhibitor, single point], COc1ccc(-c2oc3ccccc3c(=O)c2OCC(=O)O)cc1 11.2 µM [inhibitor, full curve], CCOC(=O)c1sc(N2C(=O)C(O)=C(C(=O)c3ccco3)C2c2cccc([N+](=O)[O-])c2)nc1C (stereo not drawn) 50.1 µM [inhibitor, partial curve], CC1=NN(C(=O)c2ccncc2)C(=O)C1N=Nc1ccc2ccccc2c1 (stereo not drawn) 15.8 µM [inhibitor, full curve], CCN1CCN(c2ncc3c(n2)CCN(Cc2ccc(OC(C)C)cc2)C3)CC1 89.1 µM [inhibitor, partial curve], CCc1cccc2sc(N(CCCN3CCOCC3)C(=O)CS(=O)(=O)c3ccccc3)nc12 89.1 µM [inhibitor, partial curve], CS(=O)(=O)N(Cc1ccco1)CC(O)Cn1c2ccccc2c2ccccc21 (stereo not drawn) 39.8 µM [inhibitor, full curve, poor fit], NNC(=S)Nc1ccc(S(=O)(=O)N2CCOCC2)cc1 35.5 µM [inhibitor, partial curve], CC(=O)c1csc(-c2cccc(-c3nc4ccc(Cl)cn4c3NC3CCCCC3)c2)c1 35.5 µM [inhibitor, full curve], CC(=O)Oc1ccc(C(=O)Nc2ccc3c(c2)C(=O)N(CCC(=O)O)C3=O)cc1 44.7 µM [inhibitor, partial curve], O=C(NCCc1c[nH]c2ccccc12)c1cccc(S(=O)(=O)Nc2ccccc2Cl)c1 89.1 µM [inhibitor, single point], Cc1cccc(C)c1NC(=O)C1CCCN1C(=O)OC(C)(C)C (stereo not drawn) 14.1 µM [inhibitor, single point], O=C(CC(=O)N/N=C\c1ccccc1)NCCc1ccccc1 25.1 µM [inhibitor, partial curve], O=c1c2[nH]c3cccc(Cl)c3c2ncn1Cc1ccco1 1.78 µM [inhibitor, partial curve, poor fit], Nc1nc(CSCc2ccccc2)nc(N2CCOCC2)n1 56.2 µM [inhibitor, partial curve], Fc1ccc(-c2csc3ncnc(Nc4ccc(N5CCOCC5)cc4)c23)cc1 39.8 µM [inhibitor, partial curve], O=C1C(=NO)C(c2ccccc2)Oc2ccccc21 (stereo not drawn) 56.2 µM [inhibitor, partial curve], [O-][n+]1c2ccccc2c2n1CCCN=C2c1ccc(Cl)cc1 89.1 µM [inhibitor, partial curve], COc1ccc(-c2oc(NC(C)=O)c(C#N)c2-c2ccc(OC)cc2)cc1 56.2 µM [inhibitor, partial curve]

Potency, active:
CC(C)=C[C@@H]1C[C@H](C)[C@H]2CC[C@H](C)c3c(O)c(O)c(C)c1c32 39.8 µM, CC(NCc1ccccc1)C1COc2ccccc2O1 (stereo not drawn) 3.16 µM, COc1ccc(-n2c(O)c(/C=N/NS(=O)(=O)c3cc(C)ccc3C)c3ccccc3c2=O)cc1OC 50.1 µM, Cc1cc(NC(=O)CCC(=O)N(Cc2ccco2)C2(C(=O)NC3CCCC3)CCCCC2)no1 89.1 µM, Cc1ccc(C(C)C)c(OCCNCc2ccccc2)c1 28.2 µM, Cc1cc(C(=O)NNC(=O)/C=C/c2ccco2)c(C)o1 44.7 µM, COc1cccc(C2CC(=O)N3CN(c4cccc(Cl)c4C)CSC3=C2C#N)c1OC (stereo not drawn) 15.8 µM, Cc1cc(=O)[nH]c(-n2[nH]c3c(c2=O)CCCC3)n1 2.24 µM, CN(C)c1ccc(-c2nc3ccccn3c2/N=C/c2ccc(Br)cc2)cc1 44.7 µM, CN(C)CCCn1c(=S)[nH]c2sc3c(c2c1=O)CCCC3 22.4 µM, CCOC(=O)N1CCc2c(sc(NCc3cc(OC)c(OC)cc3OC)c2C(=O)Nc2ccc(OCC)cc2)C1 11.2 µM, CC(C1CC2CCC1C2)n1c(-c2ccco2)n[nH]c1=S (stereo not drawn) 20 µM, CN1CCN(S(=O)(=O)c2ccc(N3CCc4ccccc4C3)nc2)CC1 8.91 µM, CCOc1ccccc1N1CCN(Cc2ccc(OC)c(OC)c2OC)CC1 3.98 µM, CC(C)c1ccc(CNc2ccc(N3CCOCC3)cc2)cc1 39.8 µM, CS(=O)(=O)N(CC(=O)NCc1ccc2c(c1)OCO2)Cc1ccccc1 17.8 µM, O=C1CCn2c1c(O)c1ccccc1c2=O 35.5 µM, O=C(NC(C(=O)N/N=C/c1cc([N+](=O)[O-])ccc1O)c1n[nH]c(=O)c2ccccc12)c1ccccc1 (stereo not drawn) 44.7 µM

Activity change, negative = inhibition, inactive:
CS(=O)(=O)N1CCN(c2ccccc2NC(=S)NC(=O)c2cccs2)CC1 -10.5% [at 11.4 µM]
